Consider 4 molecules from patent US20220389394A1 (Gilead, published 2022).

As a reminder, the EC50 is the concentration needed to bring the measured effect to its halfway point.

Assay [1] deals with T1, his-tagged recombinant human Flt3 receptor (Sino Biologicals) (human, UniProt P36888 27-541, limits assumed).
T1 construct: Bought protein; also called human recombinant FLT3; not shown: His tag
T1 sequence (looked up): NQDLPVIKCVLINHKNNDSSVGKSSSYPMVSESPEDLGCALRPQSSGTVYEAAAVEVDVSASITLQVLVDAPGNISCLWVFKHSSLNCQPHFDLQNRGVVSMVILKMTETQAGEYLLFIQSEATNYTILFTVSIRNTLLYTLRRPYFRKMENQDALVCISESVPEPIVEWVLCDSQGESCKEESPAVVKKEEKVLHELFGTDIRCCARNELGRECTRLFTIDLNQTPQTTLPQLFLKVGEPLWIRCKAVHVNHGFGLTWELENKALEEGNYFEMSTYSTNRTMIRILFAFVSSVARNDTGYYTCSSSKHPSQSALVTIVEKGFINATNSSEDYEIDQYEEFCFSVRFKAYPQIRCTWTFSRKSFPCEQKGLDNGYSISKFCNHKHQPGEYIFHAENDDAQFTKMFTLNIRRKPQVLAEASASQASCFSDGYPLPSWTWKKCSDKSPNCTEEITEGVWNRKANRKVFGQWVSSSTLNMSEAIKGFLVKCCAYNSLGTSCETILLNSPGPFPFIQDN
Put plainly: ELISA; His-tagged recombinant human Flt3 on nickel plate, serially diluted Flt3L-Fc, anti-human (H+L)-HRP, 4PL fit. From the text: Graph is a result of one experiment.
(§1) Signal was developed using TMB substrate then quenched prior to reading absorbance at 450 nm on a SpectraMax plate reader.
(In general: An ELISA detects its analyte on a solid surface through an enzyme-linked reagent.)

Assay [2] has as its target T2, human FLT3 on the AML5 cell line (human, UniProt P36888 27-993).
T2 sequence (looked up): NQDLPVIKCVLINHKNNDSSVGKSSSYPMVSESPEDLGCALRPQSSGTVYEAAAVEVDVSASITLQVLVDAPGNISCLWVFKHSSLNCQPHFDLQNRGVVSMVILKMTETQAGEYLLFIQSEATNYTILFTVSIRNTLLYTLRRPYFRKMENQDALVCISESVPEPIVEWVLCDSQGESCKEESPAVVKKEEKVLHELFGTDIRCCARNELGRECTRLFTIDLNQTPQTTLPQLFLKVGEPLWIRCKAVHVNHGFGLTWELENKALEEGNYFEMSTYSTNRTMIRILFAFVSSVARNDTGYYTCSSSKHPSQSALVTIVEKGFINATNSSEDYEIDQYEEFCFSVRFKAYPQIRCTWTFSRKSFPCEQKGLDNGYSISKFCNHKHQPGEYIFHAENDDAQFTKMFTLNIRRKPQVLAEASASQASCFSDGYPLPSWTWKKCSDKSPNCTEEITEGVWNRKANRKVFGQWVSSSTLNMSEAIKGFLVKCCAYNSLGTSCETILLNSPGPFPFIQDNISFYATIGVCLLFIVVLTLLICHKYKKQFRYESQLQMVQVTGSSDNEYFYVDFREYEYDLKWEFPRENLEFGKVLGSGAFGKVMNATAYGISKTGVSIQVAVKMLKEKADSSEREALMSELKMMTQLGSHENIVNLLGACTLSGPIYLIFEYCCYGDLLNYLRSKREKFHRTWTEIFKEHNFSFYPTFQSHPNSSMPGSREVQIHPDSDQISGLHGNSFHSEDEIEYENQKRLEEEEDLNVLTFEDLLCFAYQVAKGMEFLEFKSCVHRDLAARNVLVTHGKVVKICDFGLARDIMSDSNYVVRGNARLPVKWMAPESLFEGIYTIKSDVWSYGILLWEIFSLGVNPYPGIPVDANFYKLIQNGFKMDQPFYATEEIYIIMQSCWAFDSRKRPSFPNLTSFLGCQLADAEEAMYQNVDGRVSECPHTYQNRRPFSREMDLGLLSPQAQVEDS
Put plainly: cell-based or functional assay.

Assay [3] concerns the target T3, recombinant human C1q protein (Fitzgerald) (human, UniProt P02745; P02746; P02747, limits assumed).
T3 construct: also called human recombinant complement protein, C1q
Put plainly: ELISA, test article immobilized, C1q added; text: devoid of C1q binding ability.

The target in assay [4] is T4, recombinant human FcRn (human, UniProt P55899 fragment; P61769 fragment, limits assumed).
T4 construct: a beta-2-microglobulin chain is not mentioned; also called human recombinant FcRn
Put plainly: ELISA; recombinant human FcRn coated, serially diluted test article, anti-human (H+L)-HRP, 4PL fit; estimate, no saturating signal. As to the method: (§2) Graph is a result of one experiment. Experiment was performed in duplicate. Error bars represent standard deviation of the mean values.
(§3) Signal was developed using TMB substrate then quenched prior to reading absorbance at 450-650 nm on a SpectraMax plate reader.

Assay [5] addresses T1, his-tagged recombinant human Flt3 …. The assay is described as follows: ELISA; His-tagged recombinant human Flt3 on nickel plate, serially diluted Flt3L-Fc, anti-human (H+L)-HRP, 4PL fit. The procedure: as §2, §1
This is another data set of the same source.

The target in assay [6] is T4, recombinant human FcRn. Put plainly: ELISA; recombinant human FcRn coated, serially diluted test article, anti-human (H+L)-HRP, 4PL fit. The procedure: as §2, §3
Assay [7] addresses T2, human FLT3 on the AML5 cell line. The assay is described as follows: cell-based or functional assay. This is another data set of the same source.

Read-outs that look alike come from different tables or passages of the source.

T3 sequence (P02745 23-245 limits assumed, chain 1 of 3): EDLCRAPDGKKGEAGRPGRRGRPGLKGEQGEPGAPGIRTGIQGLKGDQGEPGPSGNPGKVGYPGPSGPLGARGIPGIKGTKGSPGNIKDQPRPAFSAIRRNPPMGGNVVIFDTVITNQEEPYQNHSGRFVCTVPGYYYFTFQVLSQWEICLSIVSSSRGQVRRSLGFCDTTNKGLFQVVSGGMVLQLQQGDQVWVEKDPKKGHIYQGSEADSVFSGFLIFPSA
T3 sequence (P02746 28-253 limits assumed, chain 2 of 3, further chain): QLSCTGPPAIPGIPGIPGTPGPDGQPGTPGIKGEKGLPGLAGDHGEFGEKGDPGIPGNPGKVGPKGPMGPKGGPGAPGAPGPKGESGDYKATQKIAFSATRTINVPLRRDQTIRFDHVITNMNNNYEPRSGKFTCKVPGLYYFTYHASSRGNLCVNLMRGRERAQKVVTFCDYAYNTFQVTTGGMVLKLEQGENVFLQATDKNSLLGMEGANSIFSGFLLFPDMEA
T3 sequence (P02747 29-245 limits assumed, chain 3 of 3, further chain): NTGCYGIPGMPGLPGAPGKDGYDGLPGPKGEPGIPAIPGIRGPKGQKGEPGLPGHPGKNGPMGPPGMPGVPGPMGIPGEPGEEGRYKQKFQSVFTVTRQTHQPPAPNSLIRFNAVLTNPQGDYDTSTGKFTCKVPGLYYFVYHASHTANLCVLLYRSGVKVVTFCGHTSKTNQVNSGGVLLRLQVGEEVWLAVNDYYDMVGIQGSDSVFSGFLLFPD
T4 sequence (P55899 24-297 limits assumed, chain 1 of 2): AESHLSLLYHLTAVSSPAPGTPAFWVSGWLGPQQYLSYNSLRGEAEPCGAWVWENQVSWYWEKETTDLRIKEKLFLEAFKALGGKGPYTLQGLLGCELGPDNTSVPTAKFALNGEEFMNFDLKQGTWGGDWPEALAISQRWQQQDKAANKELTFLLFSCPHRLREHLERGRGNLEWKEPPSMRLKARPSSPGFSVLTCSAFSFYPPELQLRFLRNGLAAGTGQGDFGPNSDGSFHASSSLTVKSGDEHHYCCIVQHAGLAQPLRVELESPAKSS
T4 sequence (P61769 21-119 limits assumed, chain 2 of 2, further chain): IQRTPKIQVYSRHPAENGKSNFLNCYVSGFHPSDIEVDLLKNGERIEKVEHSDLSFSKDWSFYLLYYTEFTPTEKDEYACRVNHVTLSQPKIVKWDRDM

B1: human FLT3-ligand human IgG4 (S228P/L235E) fusion protein (SEQ ID NO:3) (Fc fusion)
chain: TQDCSFQHSPISSDFAVKIRELSDYLLQDYPVTVASNLQDEELCGGLWRLVLAQRWMERLKTVAGSKMQGLLERVNTEIHFVTKCAFQPPPSCLRFVQTNISRLLQETSEQLVALKPWITRQNFSRCLELQCQPDSSTLPPPWSPRPLEATAPTAPQ[human IgG4 Fc with changes not printed]
notes: also called FLT3L ECD - hG4 S228P/L235E
Consider B1, for which the concentration giving a half-maximal response (EC50) in assay [1] was found to be 0.18 nM. Also, the “EC50 (nM), AML5 proliferation” value in assay [2] is 0.088 nM.

B2: human FLT3-ligand human IgG4 (S228P/F234A/L235A) fusion protein (SEQ ID NO:4) (Fc fusion)
chain: TQDCSFQHSPISSDFAVKIRELSDYLLQDYPVTVASNLQDEELCGGLWRLVLAQRWMERLKTVAGSKMQGLLERVNTEIHFVTKCAFQPPPSCLRFVQTNISRLLQETSEQLVALKPWITRQNFSRCLELQCQPDSSTLPPPWSPRPLEATAPTAPQ[human IgG4 Fc with S228P F234A L235A (EU numbers) not printed]
notes: also called FLT3L ECD - hG4 S228P/F234A/L235A
Consider B2, for which the results for the EC50 (in assay [1]; with recombinant human FcRn [4]) were 0.18 nM and approximately 68.8 nM, respectively. Further, the binding result in assay [3] is on record as “no binding (tested: 94 nM (highest of the titration))”. The “EC50 (nM), AML5 proliferation” value in assay [2] came to 0.073 nM.

B3: human FLT3-ligand (Δ10 amino acid) human IgG4 (S228P/F234A/L235A) fusion protein (SEQ ID NO:8) (Fc fusion)
chain: TQDCSFQHSPISSDFAVKIRELSDYLLQDYPVTVASNLQDEELCGGLWRLVLAQRWMERLKTVAGSKMQGLLERVNTEIHFVTKCAFQPPPSCLRFVQTNISRLLQETSEQLVALKPWITRQNFSRCLELQCQPDSSTLPPPWSPRP[human IgG4 Fc with S228P F234A L235A (EU numbers) not printed]
Regarding B3, the values for the concentration giving a half-maximal response (EC50) (in assay [1]; with recombinant human FcRn [4]) were 0.2 nM and approximately 140 nM, respectively. Besides, the binding result in assay [3] is given as “no binding (tested: 94 nM (highest of the titration))”. In assay [2], the “EC50 (nM), AML5 proliferation” value stood at 0.075 nM.

B4: human FLT3-ligand (Δ5 amino acid) human IgG4 (S228P/F234A/L235A) fusion protein (SEQ ID NO:6) (Fc fusion)
chain: TQDCSFQHSPISSDFAVKIRELSDYLLQDYPVTVASNLQDEELCGGLWRLVLAQRWMERLKTVAGSKMQGLLERVNTEIHFVTKCAFQPPPSCLRFVQTNISRLLQETSEQLVALKPWITRQNFSRCLELQCQPDSSTLPPPWSPRPLEATA[human IgG4 Fc with S228P F234A L235A (EU numbers) not printed]
notes: also called FLT3L (Δ C-term 5aa (PTAPQ)) - hG4 S228P/F234A/L235A
Take B4: the EC50 in assay [1] was 0.22 nM; in assay [5], 0.7 nM; in the assay with recombinant human FcRn [4] it was approximately 136 nM; in the assay with recombinant human FcRn [6], 365 nM. Also, in assay [3], the binding result is reported as “no binding (tested: 94 nM (highest of the titration))”. The “EC50 (nM), AML5 proliferation” value worked out at 0.048 nM in assay [7] and 0.078 nM in assay [2].
